Laboratory results published in PubChem BioAssay AID1030 (National Center for Advancing Translational Sciences (NCATS), 2008).
Out of some 220,000 compounds screened, about 16,000 (7.3%) were called active. The shares of active, inactive and inconclusive entries below differ from those in the screen. Calls come from the whole dose curve; as a rule, active = well fitted inhibition curve with a large enough effect (not every such curve was filed as active); inconclusive = small, poorly fitted or top-dose-only effect, or another doubt; inactive = no such curve, though single readings can be large or run the other way. Potencies of inconclusive entries are left out as doubtful fits.
Potency is the fitted concentration of half-maximal effect; tags give direction and shape of the fitted curve.

The molecules below were run against Aldehyde dehydrogenase 1A1 (Homo sapiens) (UniProt P00352) (assay: qHTS Assay for Inhibitors of Aldehyde Dehydrogenase 1 (ALDH1A1)). Conditions: Purified ALDH1A1, NADH fluorescence, propionaldehyde substrate; series mostly up to 75.3 µM.
UniProt P00352, sequence (P00352 whole entry, looked up): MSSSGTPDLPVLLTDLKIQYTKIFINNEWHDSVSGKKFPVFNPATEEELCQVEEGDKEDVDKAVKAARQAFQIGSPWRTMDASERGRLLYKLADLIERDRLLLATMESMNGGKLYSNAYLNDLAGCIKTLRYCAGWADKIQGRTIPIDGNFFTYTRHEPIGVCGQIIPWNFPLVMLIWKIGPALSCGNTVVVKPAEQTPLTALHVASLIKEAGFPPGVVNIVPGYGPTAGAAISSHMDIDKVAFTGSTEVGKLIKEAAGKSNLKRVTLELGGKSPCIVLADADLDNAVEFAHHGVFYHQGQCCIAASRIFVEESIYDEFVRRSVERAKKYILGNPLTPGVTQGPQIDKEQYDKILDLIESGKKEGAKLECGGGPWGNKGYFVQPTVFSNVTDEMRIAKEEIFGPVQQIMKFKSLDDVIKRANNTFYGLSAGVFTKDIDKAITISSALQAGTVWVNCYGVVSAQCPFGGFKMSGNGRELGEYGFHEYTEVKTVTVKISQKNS
With `O=C(COc1cc(F)ccc1[N+](=O)[O-])Nc1ccc(N2CCOCC2)cc1` the Potency was active: 12.6 µM. For `C=CCOc1c(Br)cc(/C=N/O)cc1OCC`, the Potency was “inactive”. In the case of `O=C(c1ccc(F)cc1)C1CCN(C(=S)NCC2CCCO2)CC1` (configuration not stated), the Potency is reported as inconclusive [inhibitor, partial curve]. With `Cc1cc(C)nc(NS(=O)(=O)c2ccc(NC(=S)NC(=O)c3ccco3)cc2)n1` the Potency was inconclusive [inhibitor, single point]. With `COC(=O)CCN(C(=O)c1ccc(N2CCCCC2)c([N+](=O)[O-])c1)c1ccccn1` the Potency was inconclusive [inhibitor, single point]. For `COCCN(C(=O)CSc1nc2ccccc2c(=O)n1C(C)COC)c1c(N)n(Cc2ccccc2)c(=O)[nH]c1=O` (configuration not stated), the Potency was inconclusive [inhibitor, single point]. In the case of `Cn1c(Cn2nnc3ccccc32)nnc1SCC(=O)c1ccc(F)cc1`, the Potency is reported as inconclusive [inhibitor, single point]. In the case of `CC(C)N1CCC(N2CCN(Cc3ccc(-c4ccccc4Cl)o3)CC2CCO)CC1` (configuration not stated), the Potency is reported as inconclusive [inhibitor, single point]. For `O=S(=O)(NC1c2cccc3cccc(c23)C1N1CCNCC1)c1ccccc1` (configuration not stated), the Potency was “inactive”. `CCC1CCCCN1C(=O)CSc1nc(N)cc(N)n1` (configuration not stated) was tested, and the Potency was active: 8.91 µM. For `Cc1cccc(NC(=O)c2cn(-c3ccccc3)nc2-c2ccccc2)c1`, the Potency was inconclusive [inhibitor, single point]. `COc1cc(S(=O)(=O)N(Cc2cccnc2)Cc2ccco2)ccc1-n1cnnn1` was tested, and the Potency was inconclusive [inhibitor, single point]. With `NC(=O)Cn1nnc(-c2ccc(CN3CCCCC3)cc2)n1` the Potency was “inactive”. `COc1ccc(OC)c(/C=N/NC(=O)CC2C(=O)NN=C2C)c1` (configuration not stated) was tested, and the Potency was inconclusive [inhibitor, partial curve]. In the case of `COc1ccc(S(=O)(=O)NN=C2CCCCC2)cc1`, the Potency is reported as active: 0.631 µM. For `CCCN1C(=O)c2ccccc2NC1c1ccc(OC)c(CSc2ccccn2)c1` (configuration not stated), the Potency was inconclusive [inhibitor, single point]. With `COC(=O)c1sccc1NC(=O)c1c(C)c(-c2cccc(Cl)c2)nc2ccccc12` the Potency was “inactive”. In the case of `O=C(NCC(c1cccnc1)N1CCOCC1)Nc1ccccc1` (configuration not stated), the Potency is reported as “inactive”. `COc1cc2oc(=O)cc(-c3ccc(-c4cccc(N)c4)cc3)c2c(OC)c1OC` was tested, and the Potency was inconclusive [inhibitor, single point]. `COc1ccc2c(Cl)c(C(=O)NCCCn3ccnc3)sc2c1Cl` was tested, and the Potency was inconclusive [inhibitor, partial curve]. In the case of `O=C(CCCN1C(=O)/C(=C/c2cccs2)SC1=S)NNC(=O)c1ccccc1O`, the Potency is reported as inconclusive [inhibitor, single point]. For `Cc1csc(CN(C)C(=O)CC2C(=O)NCCN2CC(C)(C)C)n1` (configuration not stated), the Potency was inconclusive [inhibitor, single point]. With `CCN(CC)S(=O)(=O)c1ccc2c3c(cccc13)C(=O)N2` the Potency was inconclusive [inhibitor, single point]. `COc1ccccc1NS(=O)(=O)c1cc(C(=O)NCCN2CCOCC2)ccc1Cl` was tested, and the Potency was inconclusive [inhibitor, single point]. With `CCN(CC)S(=O)(=O)c1ccc(C(=O)C(C#N)c2ccccn2)cc1` (configuration not stated) the Potency was inconclusive [inhibitor, single point]. With `O=C(COC(=O)c1ccc(Br)cc1)Nc1ccccc1Br` the Potency was inconclusive [inhibitor, single point]. In the case of `O=[N+]([O-])c1cccc(Cl)c1NCCNS(=O)(=O)c1ccc(Cl)cc1`, the Potency is reported as inconclusive [inhibitor, single point]. With `Cc1cc([N+](=O)[O-])nn1CC(=O)Nc1cccc2nonc12` the Potency was inconclusive [inhibitor, single point]. With `O=C(Cn1ccc([N+](=O)[O-])n1)NCc1cccnc1` the Potency was “inactive”. For `N#C/C(=N\Nc1cccc2ccccc12)c1nnc2n1CCCCC2`, the Potency was “inactive”. `CCc1ccc(NS(=O)(=O)c2ccc3[nH]c(=O)[nH]c3c2)cc1` was tested, and the Potency was inconclusive [inhibitor, full curve]. `COc1cc(Cl)ccc1NC(=O)COc1ccccc1C(=O)N1CCN(c2ccc(O)cc2)CC1` was tested, and the Potency was inconclusive [inhibitor, single point]. For `COc1ccc(C(=O)Nc2ccc(Cl)cc2C(=O)NCCN2CCOCC2)cc1`, the Potency was inconclusive [inhibitor, single point]. In the case of `COc1ccc(CC(=O)N2CCN(c3ccccn3)CC2)cc1OC`, the Potency is reported as inconclusive [inhibitor, partial curve]. With `S=c1[nH]cc(-c2ccc(Cl)cc2)n1Cc1ccccc1` the Potency was inconclusive [inhibitor, full curve, poor fit]. With `Cc1ccccc1NC(=O)c1nn(-c2ccc(F)c(F)c2)ccc1=O` the Potency was “inactive”. With `Cc1ccc(SCC2(O)CCN(C(=O)c3ccc(Cl)cc3)CC2)cc1` the Potency was inconclusive [inhibitor, partial curve]. For `CC(C)OC(=O)CN1CCN(S(=O)(=O)c2cc(Cl)ccc2Cl)CC1`, the Potency was inconclusive [inhibitor, single point]. For `O=C(Nc1ccc2cn[nH]c2c1)c1ccc(Cl)c(S(=O)(=O)N2CCOCC2)c1`, the Potency was “inactive”. `C/C=C(/C)C(=O)OC1C(OC(C)=O)[C@@]2(CO)C(O)C[C@@]3(C)C(=CCC4[C@@]5(C)CCC(OC6OC(C(=O)O)[C@@H](O[C@@H]7OC(CO)C(O)C(O)C7O)C(O)[C@H]6O[C@@H]6OC(CO)C(O)C(O)C6O)[C@](C)(CO)C5CC[C@@]43C)C2CC1(C)C` (some centres not stated) was tested, and the Potency was inconclusive [inhibitor, single point]. With `CCOCC(=O)Nc1cc(Cl)c(OC)cc1OC` the Potency was “inactive”. With `CCC(=O)Nc1ccc2c(c1)C(=O)N(C1CCCCC1)C2=O` the Potency was inconclusive [inhibitor, partial curve]. With `Cc1ccc(C(=O)Nc2ccccc2C(=O)N2CCOCC2)cc1[N+](=O)[O-]` the Potency was “inactive”. `CCOC(=O)c1c(NC(=O)c2ccc(Br)o2)sc(C)c1CC` was tested, and the Potency was inconclusive [inhibitor, partial curve]. `Cc1ccc(NC(=S)NC(=O)c2ccc(-c3ccc(Cl)cc3)o2)c(O)c1` was tested, and the Potency was inconclusive [inhibitor, single point]. In the case of `COc1ccc(NC(=O)CN2CCc3ccccc3C2)cc1OC`, the Potency is reported as “inactive”. `COc1ccc(OCc2nnc3n2N=C(c2ccc(C)cc2)CS3)cc1` was tested, and the Potency was inconclusive [inhibitor, partial curve]. With `COc1cc(NS(=O)(=O)c2ccc(OC)c(C)c2C)c(OC)cc1Cl` the Potency was inconclusive [inhibitor, partial curve]. With `C/C(=N/NC(=O)CSc1nc2ccccc2s1)c1ccncc1` the Potency was active: 20 µM. With `COc1ccc2nc3cccc(OC)c3nc2c1` the Potency was inconclusive [inhibitor, partial curve]. `Cc1cccc(NC(=O)CN2C(=S)NC(C)(C)CC2C)c1C` (configuration not stated) was tested, and the Potency was inconclusive [inhibitor, single point]. With `CCN(CC)C(=O)c1ccc(Nc2nnc(C)c3ccccc23)cc1` the Potency was active: 3.98 µM. In the case of `COc1ccc2[nH]cc(CCNc3ccnc(-c4ccc(N(C)C)cc4)n3)c2c1`, the Potency is reported as inconclusive [inhibitor, partial curve]. With `COc1ccc(CNC(=O)C2CCN(S(=O)(=O)N3CCC4(CC3)OCCO4)CC2)c(OC)c1` the Potency was inconclusive [inhibitor, single point]. In the case of `O=C(CSc1nc2ncccc2[nH]1)Nc1ccc2c(c1)OCCO2`, the Potency is reported as inconclusive [inhibitor, single point]. In the case of `CC1(C)OC(=O)C(=CNc2ccccc2F)C(=O)O1`, the Potency is reported as inconclusive [inhibitor, single point]. `S=C(NNC(=S)NC1CC2CCC1C2)NC1CC2C=CC1C2` (configuration not stated) was tested, and the Potency was active: 20 µM. In the case of `CN(C)Cc1cc(C(C)(C)C)c(O)c(C(C)(C)C)c1`, the Potency is reported as inconclusive [inhibitor, single point]. `CC(C)c1cccc2c([Si](C)(C)C)c3c(nc12)-c1cccc(=O)n1C3` was tested, and the Potency was inconclusive [inhibitor, partial curve]. In the case of `CCOC(=O)c1nn(-c2ccc(C)c(C)c2)cc1O`, the Potency is reported as inconclusive [inhibitor, single point]. In the case of `COc1ccc(CCNC(=O)c2nnc(Cc3c(F)cccc3Cl)o2)cc1OC`, the Potency is reported as inconclusive [inhibitor, single point]. In the case of `O=c1ccc(/C=C/c2ccccc2)nn1Cc1ccccc1Cl`, the Potency is reported as inconclusive [inhibitor, single point]. `CCOC(=O)N1CCN(C(=O)c2ccc3c(c2)ncn3C2CCCC2)CC1` was tested, and the Potency was inconclusive [inhibitor, single point]. In the case of `COc1cccc(C2CC(c3ccccc3Cl)n3ncnc3N2)c1` (configuration not stated), the Potency is reported as inconclusive [inhibitor, single point]. With `Cc1c(Cl)cccc1NCC(=O)Nc1ccc(Cl)cc1F` the Potency was inconclusive [inhibitor, single point]. In the case of `COc1ccc(CCN2C(=O)NC(NS(=O)(=O)c3ccc(NC(C)=O)cc3)(C(F)(F)F)C2=O)cc1OC` (configuration not stated), the Potency is reported as “inactive”. With `O=C(CCn1nnc2ccccc21)NNC(=O)C1CCCCC1` the Potency was inconclusive [inhibitor, single point].
